Data published in article PMC4336329 (PLoS ONE, 2015).
Among all 310,000 compounds or so, about 14,000 (4.5%) showed an effect of 50% or more. Effects have a minus sign here. Some of the results follow.

target: human ether-à-go-go-related gene (hERG) potassium channel (human, UniProt Q12809); experiment: primary screen, population patch clamp on CHO cells stably expressing hERG
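Further: peak tail current of the secondary pulse compared with the same well before compound.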

human ether-à-go-go-related gene (hERG) potassium channel, sequence (Q12809 whole entry, looked up): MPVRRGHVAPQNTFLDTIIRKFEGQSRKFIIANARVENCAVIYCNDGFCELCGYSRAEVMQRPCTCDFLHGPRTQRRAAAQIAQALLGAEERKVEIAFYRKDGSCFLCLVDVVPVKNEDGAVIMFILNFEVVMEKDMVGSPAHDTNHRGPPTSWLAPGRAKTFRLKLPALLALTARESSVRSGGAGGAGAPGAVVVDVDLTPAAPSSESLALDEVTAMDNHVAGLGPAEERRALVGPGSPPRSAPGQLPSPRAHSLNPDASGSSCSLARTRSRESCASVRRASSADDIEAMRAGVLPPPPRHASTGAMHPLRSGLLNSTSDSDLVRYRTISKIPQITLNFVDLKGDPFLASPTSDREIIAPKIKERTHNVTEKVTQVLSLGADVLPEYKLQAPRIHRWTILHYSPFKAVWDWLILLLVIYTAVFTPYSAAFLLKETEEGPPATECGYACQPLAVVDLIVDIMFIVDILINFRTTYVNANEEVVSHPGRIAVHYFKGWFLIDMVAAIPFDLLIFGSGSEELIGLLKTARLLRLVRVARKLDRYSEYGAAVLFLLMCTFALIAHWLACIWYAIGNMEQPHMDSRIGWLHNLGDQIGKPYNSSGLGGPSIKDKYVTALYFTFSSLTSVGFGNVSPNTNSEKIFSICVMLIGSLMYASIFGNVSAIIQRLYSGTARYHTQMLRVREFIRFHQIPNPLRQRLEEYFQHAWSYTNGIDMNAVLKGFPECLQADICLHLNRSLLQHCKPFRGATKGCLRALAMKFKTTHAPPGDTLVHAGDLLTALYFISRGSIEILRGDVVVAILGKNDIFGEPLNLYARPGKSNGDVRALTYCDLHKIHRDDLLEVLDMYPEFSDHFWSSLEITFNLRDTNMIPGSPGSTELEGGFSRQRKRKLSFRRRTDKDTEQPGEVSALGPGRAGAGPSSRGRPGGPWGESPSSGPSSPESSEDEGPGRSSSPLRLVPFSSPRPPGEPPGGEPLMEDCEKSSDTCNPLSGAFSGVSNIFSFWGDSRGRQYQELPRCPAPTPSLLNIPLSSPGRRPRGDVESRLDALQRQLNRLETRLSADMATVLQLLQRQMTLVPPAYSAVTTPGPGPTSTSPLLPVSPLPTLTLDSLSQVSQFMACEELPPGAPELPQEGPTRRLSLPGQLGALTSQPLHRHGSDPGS

Row | Compound | hERG current change (%, negative = inhibition) at 10uM [%]
1 | C[C@H]1CCCC(=O)CCCCCc2cc(O)cc(O)c2C(=O)O1 | -0.0905
2 | N#CCCN(CCC#N)C(=O)c1ccc(Cl)cc1 | 5.57
3 | O=C(Nc1nc2c(s1)COc1ccccc1-2)c1cccs1 | -4.39
4 | CC1CCCCC1NC(=O)Cn1cccc1C(=O)c1ccccc1 (stereo not shown) | 8.34
5 | O=C(CSc1nc2ccccc2s1)NCc1cc([N+](=O)[O-])ccc1O | 9.05
6 | Cc1csc(SCC(=O)Nc2ccc(C)c(F)c2)n1 | -16.3
7 | COCCN(C(=O)c1csnn1)C(C(=O)NC1CCCCC1)c1sccc1C (stereo not shown) | -14.5
8 | c1ccc(-c2nc(N3CCNCC3)nc3ccccc23)cc1 | -65.2
9 | COC(=O)c1sccc1NC(=O)CC1C(=O)NCCN1C(=O)c1c(F)cccc1Cl (stereo not shown) | 5.02
10 | O=C(COC(=O)c1nsc(Cl)c1Cl)NC1CCCC1 | -0.756
11 | COc1ccc(C2CC(C(F)(F)F)n3ncc(C(=O)Nc4cccc(O)c4)c3N2)cc1OC (stereo not shown) | 4.45
12 | CCN(CC)S(=O)(=O)c1cccc(NC(=O)CNC2CCCCCC2)c1.O=C(O)C(=O)O | -60.8
13 | CCc1nnc2n1N=C(c1ccc(Cl)cc1)CS2 | 8.48
14 | O=C(O)/C=C/C(=O)Nc1ccc(OC(F)(F)F)cc1Br | 15.7
15 | COc1ccc(C2C(C#N)=C(N)Nc3onc(C(C)(C)C)c32)c(OC)c1 (stereo not shown) | 3.15
16 | COc1ccc(-c2nn(C)c(=O)c3ccccc23)cc1NC(=O)Cn1nc(-c2ccccc2)c2ccccc2c1=O | 5.06
17 | CCOP(=O)(OCC)C1NC(=O)N(c2ccccc2)C1=O (stereo not shown) | 11.7
18 | Cc1ccc(C(=O)N/C(=C/c2ccco2)C(=O)O)cc1 | -3.15
19 | Cc1cc(C)cc(N(CC(=O)NC2CCCC2)C(=O)CCC(=O)Nc2nccs2)c1 | 11.6
20 | COc1ccc(-n2ncc3c(Nc4cccc(C)c4)ncnc32)cc1 | 2.39
21 | O=C(CCn1nnc2ccccc21)Nc1nnc(COc2ccccc2F)s1 | 5.01
22 | CC(=O)c1ccc2noc(-c3cccc(F)c3)c2c1 | 2.79

Row | Compound | hERG current change (%, negative = inhibition) at 10uM [%]
23 | C=CCSc1nnc(NC(=O)C23CC4CC(CC(NC(C)=O)(C4)C2)C3)s1 | 2.02
24 | CC(C)(C)C(=O)Nc1scc(-c2ccc(-c3ccccc3)cc2)c1C(=O)O | 45.8
25 | CCCC1(C(=O)OC)NC(c2cc(OC)c(OC)c(OC)c2)C2C(=O)N(CC)C(=O)C21 (stereo not shown) | 8.33
26 | O=S(=O)(NC1CCCC1)c1ccc(S(=O)(=O)N(Cc2cccs2)CC2CCCO2)cc1 (stereo not shown) | 0.161
27 | CCNC(=O)CSc1nnc(-c2ccccc2Br)n1-c1cccc(C(F)(F)F)c1 | -14
28 | COc1ccc(N/C(=N\c2nc(C)cc(C)n2)NC(C)=O)cc1OC | 9.69
29 | CC1CN(C(=O)c2cc3cc(Cl)ccc3[nH]2)CC(C)O1 (stereo not shown) | -7.59
30 | COc1ccc2[nH]c3c(c2c1)CCNC3c1ccc([N+](=O)[O-])o1.Cl (stereo not shown) | -32.9
31 | Cc1ccc(-n2c(Cc3cccn3C)nnc2SCC(N)=O)cc1 | 1.64
32 | Cc1ccc(NCC(=O)N/N=C/c2cc(O)ccc2[N+](=O)[O-])cc1 | -2.04
33 | O=C(CCc1nc2sc3c(c2c(=O)[nH]1)CCCC3)Nc1cccc(Cl)c1 | -13.7
34 | CSc1nsc(SC)c1C(=O)Nc1ccc(Cl)cc1 | 7.75
35 | C#CCOCCOCCOCCNc1nc(N2CCN(C(=O)[C@H](CCCCN)n3cc(C(N)[C@H](C)CC)nn3)CC2)nc(N2CCN(C(=O)[C@H](CCC(=O)O)n3cc(C(N)[C@H](C)CC)nn3)CC2)n1.Cl (stereo partly shown) | 13.5
36 | Cc1ccc(S(=O)(=O)NCc2cccnc2)cc1C | -0.942
37 | O=C(Nc1cccc(S(=O)(=O)N2CCCCC2)c1)c1cccs1 | -18.8
38 | CCN(CCCn1c(=S)[nH]c2ncccc2c1=O)c1ccccc1 | 5.02
39 | Cc1ccc(S(=O)(=O)Nc2cccc(C(=O)NCC(C)(C)N3CCOCC3)c2)cc1F | -50.3
40 | COc1ccc(S(=O)(=O)N2CCN(C(=O)c3cccnc3)CC2)cc1OC | 7.39
41 | CCOC(=O)c1ccc(Nc2c(OCC)c(=O)c2=O)cc1 | -15.4
42 | N/C(=N\OC(=O)COc1ccc(Cl)cc1Cl)c1ccccn1 | 3.46
43 | CCN(CC)S(=O)(=O)N1CCC(C(=O)NCc2ccc3c(c2)OCO3)CC1 | -1.84
44 | Cc1cc(=S)[nH]c2c(C)cccc12 | 17.4

Row | Compound | hERG current change (%, negative = inhibition) at 10uM [%]
45 | COc1ccc(-c2cc(C#N)nc(Cl)n2)cc1 | -2.88
46 | CN1CCN(CCCNC(=O)c2nnc(Cc3c(F)cccc3Cl)o2)CC1 | -3.44
47 | CCCN(CC(=O)Nc1ccc(Cl)cc1Cl)C(=O)/C=C/c1ccco1 | -38.5
48 | O=C(CCCNC(=O)c1ccc(Cl)cc1)Nc1cccc(F)c1 | 8.06
49 | O=C(NCCc1cccnc1)C1CCC(=O)N(CCc2cccc(F)c2)C1 (stereo not shown) | 7.99
50 | Cc1ccc(S(=O)(=O)c2c(C)cc(C)nc2N2CCOCC2)cc1 | -0.51
51 | CC(C)(C)C(=O)/C=C(\N)c1ccccn1 | -1.36
52 | Cc1ccc(-n2c(C)nnc2SCC(=O)NC2CC2)cc1 | 4.93
53 | CCn1nccc1C(=O)Nc1cc(Cl)cc(Cl)c1 | -12.8
54 | Cc1ccc(C(=O)Nc2nnc(S(=O)(=O)Nc3ccccc3C)s2)cc1C | 10.8
55 | NC(=O)C[n+]1cccc(C(N)=O)c1.[Cl-] | 12.8
56 | O=C(Nc1ccccc1)/C(=C/c1ccccc1)c1ccccc1 | -11.5
57 | Cc1ccc(NC(=O)CCN2C(=O)c3cccc4cccc(c34)C2=O)cc1 | 9.71
58 | CCN(CC)C(=O)Cn1cc(C(=O)C(=O)N2CCN(c3ccc([N+](=O)[O-])cc3)CC2)c2ccccc21 | -65.8
59 | O=C(Nc1ccc(Cl)c(S(=O)(=O)N2CCOCC2)c1)c1cc(=O)[nH]c2ccccc12 | -2.26
60 | CCc1cc2ccc(OC)cc2nc1SCC(=O)N1CCN(C(=O)c2ccco2)CC1 | -49.1
61 | [Cl-].c1ccc(-c2c[nH]c3[n+]2CCCCC3)cc1 | -2.27
62 | O=C(CC12CC3CC(CC(C3)C1)C2)NCc1ccc(F)cc1 | 17.4
63 | COc1ccc(CCNCc2cccn2C)cc1OC.Cl | 11.7
64 | CC(=O)c1cc2c(cc1NC(=O)CN1CCCCCC1)OCO2.O=C(O)C(=O)O | -6.97
65 | O=C1CN(C(=O)c2ccccc2Cl)c2ccccc2N1 | 12.5
66 | O=C(CN1CCC(n2nnc3cc(F)ccc32)CC1)NCCc1ccccc1 | -41.5

Row | Compound | hERG current change (%, negative = inhibition) at 10uM [%]
67 | O=C(CN1C(=O)c2ccccc2S1(=O)=O)c1ccccc1F | -0.476
68 | CN(Cc1cccs1)C(=O)CSc1nc(N)cc(N)n1 | 17.4
69 | O=C(NCc1ccc(Cl)cc1)N1CCN(S(=O)(=O)c2ccccc2)CC1 | 0.401
70 | CN(C)CCN(Cc1ccco1)C(=O)c1cc2c(Cl)nc3ccccc3c2s1 | -70.1
71 | COCCn1c(-c2ccc(OC)c(OC)c2)nc2ccccc21 | -21.6
72 | O=C(NC(=S)N1CCCCCC1)c1ccc(Cl)cc1Cl | 22.9
73 | Cc1cccc(OCCOC(=O)C2CCN(S(=O)(=O)c3ccc(C)c(C)c3)CC2)c1 | 10.7
74 | O=C(CCC(=O)CCN1CCCCC1)CCN1CCCCC1 | -3.13
75 | CC1=C(C)/C(=N\OC(=O)/C=C/c2ccccc2)C=CC1=O | 16.3
76 | O=C(NNC(=O)c1ccccc1[N+](=O)[O-])c1ccc(NC(=O)c2ccccc2)cc1 | 8.72
77 | O=C(CNc1cccc(Cl)c1)NNC(=S)NCc1ccccc1 | 16.5
78 | CCN1CCN(S(=O)(=O)c2ccc(Cl)c(C(=O)N(C)C(c3ccccc3)c3ccccc3)c2)CC1 | -50.5
79 | Br.FC(F)(F)c1ccc(N2CCOCC2)c(NC2=NCCCCC2)c1 | 6.39
80 | O=C(CC1S/C(=N/N=C2CCCCCC2)NC1=O)Nc1ccc(Br)cc1F (stereo not shown) | -10.5
81 | Cl.O=C(CN1CCOCC1)NC1C2CC3CC(C2)CC1C3 (stereo not shown) | 3.87
82 | Cc1cc(C)cc(NC(=O)CN2CCc3cc4c(cc3C2C)OCCCO4)c1 (stereo not shown) | 3.67
83 | Cc1cc(C)c(NC(=O)c2cnn(C)c2)c(C)c1 | -3.05
84 | Cn1c(=O)c2sccc2n2c(CCCC(=O)Nc3ccc(F)cc3F)nnc12 | 24.9
85 | O=C(CCSc1ccc(F)cc1)NNC(=O)c1ccccc1Cl | -2.07
86 | COc1ccccc1/C=N\Nc1cc(C)nc(-n2nc(C)cc2C)n1 | 4.17
87 | CCCNC(=O)c1oc2ccc3c(c2c1C)C(O)CC(C)(C)O3 (stereo not shown) | 3.32
88 | COc1cccc(C=Nc2ccccc2C(=O)Nc2nccs2)c1OC | 4.39
